Results published in PubChem BioAssay AID686970 (National Center for Advancing Translational Sciences (NCATS), 2013).
In all, about 360,000 compounds went through this assay and about 6,000 (1.7%) were called active. Inconclusive results, whose numbers are uncertain, are shown with a selection of clear calls. The call rests on the fitted dose curve; in most records, active means well fitted cell-killing curve with a large enough effect; inconclusive means small, poorly fitted or top-dose-only effect, or effect the other way; inactive means flat fitted curve, though single readings scatter. No potency is given beside an inconclusive call; the fits are too rough.

Assay: qHTS for induction of synthetic lethality in tumor cells producing 2HG: qHTS for the HT-1080-NT fibrosarcoma cell line;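 further: NT is the 2HG producing partner of a matched IDH1 knockdown line; nearly all actives have a fitted effect of over 55% in size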;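 on activity, negative = less viability: 0% = DMSO-treated cells and -100% = media-only wells without cells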
Settings: HT-1080-NT fibrosarcoma viability, CellTiter-Glo ATP luminescence, 48 h; activity, negative = less viability: at 46.1 µM (top of the series) unless noted
Summary of the method: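 Viability of the 2HG-overproducing fibrosarcoma line after 48 hours of compound exposure at 37 degrees C was determined by luminescence with CellTiter-Glo, and concentration-effect curves were then fitted and categorized.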
Potency means the concentration at half of the fitted maximal effect; tags describe the fitted curve by direction and shape.

| SMILES | Potency | activity, negative = less viability |
| --- | --- | --- |
| Cc1cccc(NC(=O)CNC(=O)Cn2ncc(Cl)c(Cl)c2=O)c1C | active: 25.9 µM |  |
| N/C(=N\OC(=O)C(c1ccccc1)c1ccccc1)c1ccccn1 | inconclusive [cytotoxic, single point] |  |
| O=c1[nH]c(-c2ccccn2)nc(C(F)(F)F)c1Br | inconclusive [cytotoxic, full curve] |  |
| CN(C)c1ccc(/C=N/NC(=O)CN(c2ccccc2Cl)S(C)(=O)=O)cc1Br | inconclusive [cytotoxic, single point] |  |
| O=C1c2ccccc2-c2ccc(C(=O)N3CCOCC3)cc21 |  | inconclusive: 49.1% |
| COc1ccc(-c2cc(-c3ccccc3O)[nH]n2)cc1 | inconclusive [cytotoxic, partial curve] |  |
| COc1ccc(N2CC(C(=O)N(C)CC(=O)Nc3ccc(Cl)c(C(F)(F)F)c3)CC2=O)c(OC)c1 (stereo not given) | inconclusive [cytotoxic, single point] |  |
| NS(=O)(=O)c1ccc(Nc2nc(-c3ccc4ccccc4c3)cs2)cc1 | inconclusive [cytotoxic, single point] |  |
| Cn1ccnc1C(O)c1cc(C(C)(C)C)c(O)c(C(C)(C)C)c1 (stereo not given) | active: 15.8 µM |  |
| COC(=O)c1cc(Nc2cc(C)c3ccc(O)cc3n2)cc(C(=O)OC)c1 |  | inactive: -0.922% |
| O=C(COC(=O)c1ccc(O)cc1O)Nc1ccc2c(c1)OCCO2 |  | inactive: 14.1% |
| OCCCCNCc1ccc(OCc2ccccc2Cl)cc1 | inconclusive [cytotoxic, single point] |  |
| COc1cccc(/C=N/Nc2ncnc3scc(-c4ccccc4)c23)c1O | inconclusive [cytotoxic, partial curve, poor fit] |  |
| CCc1nnc(N/N=C\c2ccc(OC(C)=O)c(OC)c2)n1N | inconclusive [cytotoxic, single point] |  |
| O=C(c1ccccc1)N1N=C(c2ccccc2)CC1c1ccc2nccnc2c1 (stereo not given) |  | inactive: 5.43% |
| CCOc1ccc(Br)cc1/C(C)=N\NC1=NCCN1 | active: 20.6 µM |  |
| CC(C)(C)c1csc(NNC(=O)c2ccc(Br)cc2)n1 | inconclusive [cytotoxic, partial curve] |  |
| O=C(Nc1ccc(F)cc1F)c1ccccc1NC(=O)C1CC=CCC1C(=O)O (stereo not given) |  | inactive: 9.18% |
| CCN1C(=O)[C@@H]2Cc3c([nH]c4ccccc34)C(c3cc(OC)c(OC)c(OC)c3)N2C1=S (stereo not given in full) | inconclusive [cytotoxic, single point] |  |
| COc1ccc(-c2nc3c4ccccc4ccn3c2Cc2ccc(C)cc2)cc1OC | inconclusive [cytotoxic, single point] |  |
| CS(=O)(=O)N1CCN(C(=O)Cc2ccccc2Cl)CC1 | inconclusive [rising, single point] |  |
| O=c1oc2cc(O)ccc2cc1-c1ccccc1 |  | inactive: -13.8% |
| C=CC[n+]1c(-c2ccc(OCC)cc2)csc1NNC(=O)Nc1ccccc1 | inconclusive [cytotoxic, single point] |  |
| CC1c2cc3c(cc2CCN1C(=O)c1cccc(F)c1)OCCCO3 (stereo not given) | inconclusive [cytotoxic, partial curve] |  |

| SMILES | Potency | activity, negative = less viability |
| --- | --- | --- |
| CC(=O)Oc1ccc(CN2C(=O)C(CCc3ccccc3)ON=C2c2cnccn2)cc1 (stereo not given) | inconclusive [cytotoxic, single point] |  |
| Nc1nc(CCl)nc(Nc2ccc3ccccc3c2)n1 | active: 2.06 µM |  |
| CC(C)c1c(O)ccc2c1CC[C@H]1C(C)(C)CCC[C@]21C | inconclusive [cytotoxic, single point] |  |
| CC1(C(=O)Nc2ccccc2Br)CCN1C(=O)Cc1ccccc1Cl (stereo not given) | inconclusive [rising, single point] |  |
| Fc1ccc(OCc2nnc(-c3ccccc3Br)o2)c(Cl)c1 |  | inconclusive: 21.1% |
| CNc1cnc(-c2ccccc2OC)cn1 |  | inactive: 22.6% |
| Cc1noc(C)c1CSc1nc2ccccc2nc1NS(=O)(=O)c1ccc(Cl)cc1 | inconclusive [cytotoxic, partial curve] |  |
| CCCCOCCCNC(=O)CCCOc1ccccc1 | inconclusive [rising, partial curve] |  |
| CC(C)n1c(=O)c2ccccc2n1Cc1cn(C2CCCC2)nn1 | inconclusive [rising, single point] |  |
| CCCCn1c(/N=C/c2c[nH]c3ccccc23)nc2ccccc21 | inconclusive [cytotoxic, single point] |  |
| CCC(CC)N=C1NS(=O)(=O)c2cc([N+](=O)[O-])ccc21 |  | inactive: -26.8% |
| CC(C)(C)c1ccc(NC(=O)NC2CCCc3ccccc32)cc1 (stereo not given) | inconclusive [cytotoxic, single point] |  |
| Cc1cccc(C)c1NC(=O)C(c1ccccc1)n1c(=O)c(-c2cc3ccccc3[nH]2)nc2ccccc21 (stereo not given) | inconclusive [cytotoxic, partial curve] |  |
| COc1ccccc1CN(C)C(=O)C(c1ccccc1)c1ccccc1 | inconclusive [cytotoxic, single point] |  |
| O=[N+]([O-])c1cccc(Cl)c1CSc1ccccn1 |  | inactive: 10% |
| CN(Cc1ccccc1)C1CCNCC1 |  | inactive: -1.46% |
| Cc1c(C(=O)Nc2cccc(C(F)(F)F)c2)oc2ccc(S(=O)(=O)N3CCOCC3)cc12 |  | inactive: 9.39% |
| COc1ccc(CNC(=O)CN(C(=O)CCC(=O)Nc2nccs2)c2cccc(C)c2)cc1 | inconclusive [cytotoxic, partial curve] |  |
| O=C(CCl)N(c1ccccc1)C1CCS(=O)(=O)C1 (stereo not given) | inconclusive [cytotoxic, single point] |  |
| O=C(Nc1ccc(Br)cc1)C1C2C=CC3(O2)C1C(=O)N(CCN1CCCCC1)C3C(=O)NC1CCCCC1 (stereo not given) | inconclusive [cytotoxic, single point] |  |
| CCCN(CCC)CCNC(=O)c1cc2c(C)nc3ccccc3c2o1 | inconclusive [cytotoxic, single point] |  |
| COc1ccc(C(=O)NC(=S)Nc2ccccc2N2CCOCC2)cc1[N+](=O)[O-] |  | inactive: -10.6% |
| CCOc1cc(/C=C2\CN(CC)C/C(=C\c3ccc(O)c(OCC)c3)C2=O)ccc1O | active: 2.59 µM |  |
| CCCCNc1c(-c2ccc(-c3ccc(C(C)=O)cc3)c(OC)c2)nc2cc(C)ccn12 | inconclusive [cytotoxic, single point] |  |

| SMILES | Potency | activity, negative = less viability |
| --- | --- | --- |
| O=C(CP(=O)(c1ccccc1)c1ccccc1)Nc1nc2ccc(Cl)cc2s1 | inconclusive [cytotoxic, single point] |  |
| Cc1c(OCC(=O)NCc2cccnc2)ccc2c3c(c(=O)oc12)CCCC3 |  | inactive: 10.6% |
| O=C(Nc1ccc2nc(-c3ccccc3)[nH]c2c1)c1cccs1 | inconclusive [cytotoxic, partial curve] |  |
| O=C(COc1ccc(Cl)cc1)Nc1ccc(N2CCN(C(=O)c3ccco3)CC2)cc1 | inconclusive [cytotoxic, single point] |  |
| OC(c1ccccc1)(c1ccc(F)cc1)C(c1ccccc1)N1CCOCC1 (stereo not given) | inconclusive [cytotoxic, single point] |  |
| O=C(COC(=O)CNC(=O)c1ccccc1)Nc1ccc(S(=O)(=O)N2CCOCC2)cc1 |  | inactive: 3.13% |
| Cc1c2cnn(CC(=O)NCCCN3CC(C)CC(C)C3)c(=O)c2c(C)n1Cc1ccc(Cl)cc1 (stereo not given) | active: 23.1 µM |  |
| CCc1cccc(CC)c1NC(=O)c1ccccc1CCc1ccccc1 | inconclusive [rising, single point] |  |
| CCOC(=O)c1sc(NC(=O)CNCc2cccnc2)c(C(=O)OCC)c1C |  | inactive: 10.6% |
| CS(=O)(=O)Nc1ccc(C(=O)Nc2ccc3ccccc3c2)cc1 | inconclusive [cytotoxic, full curve, poor fit] |  |
| COC(=O)[C@]12CCCCC=C1N(Cc1ccc(Cl)cc1Cl)C(=O)[C@H](CC(=O)NCc1cccc(C(F)(F)F)c1)C2 | inconclusive [cytotoxic, single point] |  |
| Cc1ccc(S(=O)(=O)/N=C2\C=C(Nc3cccc(C(=O)O)c3)C(=O)c3ccccc32)cc1 | active: 23.1 µM |  |
| Cc1ccc(-c2nn(-c3ccccc3)cc2CN(Cc2ccccc2)C(=O)c2ccco2)o1 |  | inconclusive: -31.6% [cytotoxic] |
| CC(C)C1OC(c2cccc(NC(=O)c3cccs3)c2)OCC1(C)C (stereo not given) | inconclusive [cytotoxic, single point] |  |
| CC(=O)Oc1c(-c2ccco2)oc2ccccc2c1=O | inconclusive [cytotoxic, single point] |  |
| O=C1OC(/C(=C\Nc2ccccc2)[N+](=O)[O-])c2ccccc21 (stereo not given) | inconclusive [cytotoxic, partial curve] |  |
| O=C(N/N=C/c1ccc(OCc2ccccc2)cc1)c1ccc(O)cc1 | inconclusive [cytotoxic, partial curve] |  |
| O=C(N/N=C/c1cccs1)c1ccc2ccccc2c1 | inconclusive [cytotoxic, single point] |  |
| Cc1ccnc(NC(=O)CCC(=O)N(Cc2ccco2)C(C(=O)NC(C)C)c2ccc(F)cc2)c1 (stereo not given) |  | inactive: -6.45% |
| CC1(C)CC(N2CCCCC2)=CC(=[N+]2CCCCC2)C1 | active: 4.11 µM |  |
| Cc1ccc2c(c1)N(CCCC(=O)NCC1COc3ccccc3O1)C(=O)CO2 (stereo not given) |  | inactive: 1.58% |
| CC(C)C[C@H]1CN([C@@H](Cc2ccccc2)CN2CCC[C@H]2CN2C(=O)C(=O)NC[C@@H]2Cc2ccc(O)cc2)C(=O)C(=O)N1CC1CCCCCC1 | inconclusive [cytotoxic, single point] |  |
